Experimental findings from article PMC4336329 (PLoS ONE, 2015) are described below.

Out of some 310,000 compounds screened, about 2,200 (0.71%) showed an effect of 50% or more. Effects have a minus sign here. This is one part of the list.

In the experiment the target is human ether-à-go-go-related gene (hERG) potassium channel (human, UniProt Q12809). Nature of the experiment: primary screen, population patch clamp on CHO cells stably expressing hERG.
Chain of human ether-à-go-go-related gene (hERG) potassium channel (Q12809 whole entry, looked up): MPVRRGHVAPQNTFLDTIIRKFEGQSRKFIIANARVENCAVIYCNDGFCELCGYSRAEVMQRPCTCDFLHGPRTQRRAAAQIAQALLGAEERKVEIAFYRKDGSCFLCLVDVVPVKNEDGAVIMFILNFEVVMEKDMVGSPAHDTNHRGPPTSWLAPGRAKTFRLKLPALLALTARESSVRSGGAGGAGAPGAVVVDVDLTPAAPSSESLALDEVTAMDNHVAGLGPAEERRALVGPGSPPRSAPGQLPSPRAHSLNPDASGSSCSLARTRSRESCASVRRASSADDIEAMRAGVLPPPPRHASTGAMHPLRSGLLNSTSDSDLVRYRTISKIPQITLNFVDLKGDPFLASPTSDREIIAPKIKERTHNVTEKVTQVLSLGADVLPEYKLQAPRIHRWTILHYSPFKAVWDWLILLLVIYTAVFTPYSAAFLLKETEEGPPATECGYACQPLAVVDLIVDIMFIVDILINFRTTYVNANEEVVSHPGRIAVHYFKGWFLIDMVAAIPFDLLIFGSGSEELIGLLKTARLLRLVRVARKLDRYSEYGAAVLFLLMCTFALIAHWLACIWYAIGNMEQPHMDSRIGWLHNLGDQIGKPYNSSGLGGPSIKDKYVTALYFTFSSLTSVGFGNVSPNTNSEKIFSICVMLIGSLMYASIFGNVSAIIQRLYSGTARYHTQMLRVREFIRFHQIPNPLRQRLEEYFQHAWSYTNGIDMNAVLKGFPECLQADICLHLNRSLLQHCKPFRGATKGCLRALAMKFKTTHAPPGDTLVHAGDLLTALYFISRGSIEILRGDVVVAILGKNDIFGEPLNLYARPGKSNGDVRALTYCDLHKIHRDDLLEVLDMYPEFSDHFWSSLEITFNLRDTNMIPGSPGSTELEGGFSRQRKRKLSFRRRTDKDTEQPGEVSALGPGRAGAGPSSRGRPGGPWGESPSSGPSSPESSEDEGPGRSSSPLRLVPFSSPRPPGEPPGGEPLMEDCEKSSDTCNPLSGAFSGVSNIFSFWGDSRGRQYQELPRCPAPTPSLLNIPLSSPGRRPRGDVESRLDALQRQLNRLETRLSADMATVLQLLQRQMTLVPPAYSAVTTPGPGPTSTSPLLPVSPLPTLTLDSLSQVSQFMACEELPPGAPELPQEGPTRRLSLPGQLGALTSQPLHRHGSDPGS
Take `O=C(C[n+]1ccccc1)N/N=C/c1ccccc1Cl.[Cl-]`: the “hERG current change (%, negative = inhibition) at 1uM” value was found to be 13.2%. Next, `COc1cc(-c2nnc(SCC(=O)c3cc(C)n(CC4CCCO4)c3C)o2)cc(OC)c1OC` (stereo not shown): 2.73%; `c1ccc(-c2cc(-c3nnc4sc(-c5ccccn5)nn34)[nH]n2)cc1`: 7.08%. The figure for `CCc1nnc(NC(=O)CCC(=O)N2CCCC(O)C2)s1` (stereo not shown) is 13.3%; for `O=c1c2ccccc2nnn1CSc1nnc(-c2cccs2)n1Cc1ccccc1` it is -14.3%. Next, `CCOC(=O)c1[nH]c2cc3c(cc2c1NC(=O)CN1CCc2ccccc2C1)OCO3`: 5.37%; `CC(OC(=O)c1cc(O)c2ccccc2c1O)C(=O)Nc1ccc(C(N)=O)cc1` (stereo not shown): 11.5%; `CC(C)(C)C(=O)Nc1ccc2c(c1)-c1cc(NC(=O)C(C)(C)C)ccc1C2`: 13.7%. For the compound `COc1ccc(C(N)=S)c(OC)c1`, the “hERG current change (%, negative = inhibition) at 1uM” value stood at 1.77%.

In the case of `COc1ccc(/C=C/C(=O)NC(=S)N2CCCCC2)cc1OC`, the “hERG current change (%, negative = inhibition) at 1uM” value was 14.5%.

With `Cc1ccccc1NC(=O)Cc1nnc(SCC(=O)N2CCOCC2)n1C`, the “hERG current change (%, negative = inhibition) at 1uM” value is -1.79%. As to `CC(=O)N1CCN(C(=O)CCN(c2ccccc2)S(=O)(=O)c2ccc(C)cc2)CC1`, the “hERG current change (%, negative = inhibition) at 1uM” value is 1.04%. As for `Cc1c(C(=O)NC2CCN(Cc3ccccc3)C2)oc2c(Cl)cccc12` (stereo not shown), the “hERG current change (%, negative = inhibition) at 1uM” value worked out at 2.96%. `COc1cccc2cc(-c3n[nH]c(=S)n3C)oc12`: the “hERG current change (%, negative = inhibition) at 1uM” value is 11.2%. Regarding `COc1cccc(N2C(=O)CC(N3CCc4ccccc43)C2=O)c1` (stereo not shown), the “hERG current change (%, negative = inhibition) at 1uM” value was 16.8%. In the case of `CN1C(=O)NC(NC(=O)c2ccncc2)(C(F)(F)F)C1=O` (stereo not shown), the “hERG current change (%, negative = inhibition) at 1uM” value is given as 14%.

For `CCOc1ccccc1C(=O)Nc1ccc(C(=O)c2ccccc2)cc1`, the “hERG current change (%, negative = inhibition) at 1uM” value is 12.4%. The figure for `CCN(CC(=O)Nc1c(F)cccc1F)C(=O)CCOc1ccccc1` is 7.03%. The figure for `O=C(O)c1ccccc1SCc1cn2cc(Cl)ccc2n1` is 8.76%. In the case of `CC(C)(C)C(=O)NC1CC2CCCC(C1)N2C(=O)Nc1ccccc1Cl` (stereo not shown), the “hERG current change (%, negative = inhibition) at 1uM” value turned out to be 19.1%. Next, `CCOC(=O)c1cc(-c2ccc(Cl)cc2)nc2c1c(=O)[nH]c(=O)n2CCOC`: 10.4%; `CC(=O)c1ccc(N2CCN(C(=O)c3ccc4c(=O)n(-c5ccccc5)c(=O)[nH]c4c3)CC2)cc1`: 8.24%; `CC(C)C(=O)Nc1cc(-c2nc3ncccc3o2)ccc1Cl`: 13.5%. With `Cc1cc(C)c(-n2nnnc2SCC(=O)c2cccs2)c(C)c1`, the “hERG current change (%, negative = inhibition) at 1uM” value is on record as 13.4%. On to `Cc1ccc(NC(=O)Cn2c(O)c(N=NC(=O)c3cc4ccccc4cc3O)c3ccccc32)cc1`, for which the “hERG current change (%, negative = inhibition) at 1uM” value stood at 11.4%. Next, `COc1ccc(Cn2nnnc2C(c2ccncc2)N2CCOCC2)cc1` (stereo not shown): 0.213%; `O=C(CN1CCCC1)Nc1c(C(=O)C2CC2)oc2ccccc12`: 8.68%; `CCOC(=O)N1CCN(C(=O)COc2cccc3c2CCN(Cc2ccccc2C)C3=O)CC1`: 0.619%. For `C/C(=N\NC(=S)NCCc1ccccc1)c1ccc(Cl)cc1Cl`, the “hERG current change (%, negative = inhibition) at 1uM” value was 8.66%. Next, `Cc1ccc(C)n1-c1ccc2c(c1)COC2=O`: 0.209%; `CCN1CCN(C(=O)c2ccc(S(=O)(=O)Nc3ccccc3)cc2)CC1.Cl`: 9.78%. The figure for `O=C(c1ccc(Cl)c(Cl)c1)N1CCC(O)(CN2CCOCC2)CC1` is -6.73%; for `COc1cccc(CN2CCNC(=O)C2CC(=O)NCc2cn3ccc(C)cc3n2)c1OC` (stereo not shown) it is 7.75%; for `CC(C)CC(NC(=O)C1CCC(C)CC1)C(=O)Nc1ccc2c(c1)OCCO2` (stereo not shown) it is 8.16%. Next, `O=C(NCCC(=O)N1CCN(c2ccccc2O)CC1)c1ccc(Br)cc1`: 11.9%; `O=C(NCC1COc2ccccc2O1)c1ccc(NC(=O)C(c2ccccc2)c2ccccc2)cc1` (stereo not shown): 12.8%; `COC(=O)c1cn(NC(=O)C2COc3ccccc3O2)c(=O)c2ccccc12` (stereo not shown): 8.47%. For the compound `Cc1ccc(-c2nnn(CC(=O)N3CCCCC3)n2)o1`, the “hERG current change (%, negative = inhibition) at 1uM” value is on record as -5.76%.

`COc1ccc(-n2nnnc2CNC(=O)C2CC(=O)N(c3ccc(Cl)cc3)C2)cc1` (stereo not shown): the “hERG current change (%, negative = inhibition) at 1uM” value was -1.33%. As to `COc1cccc(C(C(=O)NC2CCCCC2)N(C(=O)CNC(=O)c2ccco2)c2cccnc2)c1` (stereo not shown), the “hERG current change (%, negative = inhibition) at 1uM” value turned out to be 8.42%. On to `CCN(CC)CCN1C(=O)C(=O)/C(=C(/O)c2c(C)[nH]c(C(=O)OC)c2C)C1c1ccc(OC)cc1` (stereo not shown), for which the “hERG current change (%, negative = inhibition) at 1uM” value was 0.699%. Next, `Brc1ccc(-n2cnc(-c3ccccc3)c2)cc1`: 13.7%; `CCCCN(C)C(=O)Cn1cnc2sc(C)cc2c1=O`: 14.6%.
